# In publication PMC7819943, “Rice protein-binding microarrays: a tool to detect cis-acting elements near promoter regions in rice”:
# Some of the results follow.
# Molecular target: T1, OsWOX13 (Oryza sativa, UniProt Q5QMM3 1-267)
# T1 sequence: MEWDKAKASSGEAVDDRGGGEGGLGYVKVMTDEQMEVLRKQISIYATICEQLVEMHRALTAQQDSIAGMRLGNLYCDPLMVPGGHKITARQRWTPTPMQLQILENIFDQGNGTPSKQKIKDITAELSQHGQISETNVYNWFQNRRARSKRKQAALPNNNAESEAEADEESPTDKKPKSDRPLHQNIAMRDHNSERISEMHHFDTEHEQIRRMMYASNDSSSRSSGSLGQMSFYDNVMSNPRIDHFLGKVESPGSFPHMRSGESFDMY
# Test: protein-binding microarray (RPBM); PBS, 2% BSA, 51.3 ng/ul salmon testes DNA, 50 uM zinc acetate, 200 nM TF, 25 C, 1 h; high values mean tight binding
# Conditions: protein: recombinant; tags: N-terminal polyhistidine and DsRed monomer fusion (pET32a); label: CyDye5-dUTP incorporated in the synthesized complementary strand; 3' TTTTT single-stranded linker to array surface; dsDNA, one strand shown
# Outline: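 A custom Agilent array was converted to double-stranded form by primer extension with Cy5-dUTP and blocked with 2% BSA. Protein at 200 nM in PBS with 2% BSA, salmon testes DNA and 50 µM zinc acetate was applied for 1 h at 25 °C, followed by washing. The proteins were polyhistidine–DsRed N-terminal fusions of transcription factors, expressed in E. coli BL21-CodonPlus and Ni–NTA-purified. The binding signal is per-feature fluorescence intensity (arbitrary units) from an Axon 4000B scanner.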
row,Sequence,binding signal
1,ACTAATTGGACAGTCCGACTGTAAATCGCAAGACTAATATCGGAGTCACCTAGTGCAG,26600 fluorescence intensity (a.u.)
2,GGTAACAATTGATTTGAGAGATCCAATGTTGAACGGTAGCCGGAGTCACCTAGTGCAG,27900 fluorescence intensity (a.u.)
3,TCTCTGTAACTAGATGATCAATTAACCGATTTCATGCATGCGGAGTCACCTAGTGCAG,11200 fluorescence intensity (a.u.)
4,TCTTTTCAAATTGATCATCATCTAACCTGTCTATTTGTTTCGGAGTCACCTAGTGCAG,19400 fluorescence intensity (a.u.)
5,CCTAATATCTATGATCAATGTATTTATTTGATCCGTAGCTCGGAGTCACCTAGTGCAG,4360 fluorescence intensity (a.u.)
6,GAGACGAATCTTTTAAACCTAATTAATATGTCATTAGCACCGGAGTCACCTAGTGCAG,3730 fluorescence intensity (a.u.)
7,TTTCGGTAAATTGGAGGTCGTGGGAACAAATTCTTTCACACGGAGTCACCTAGTGCAG,4950 fluorescence intensity (a.u.)
8,ATAACGTAATTAAACATTTATCAAAGAACCATCCCCTCCACGGAGTCACCTAGTGCAG,25800 fluorescence intensity (a.u.)
9,ATGTGTTCCACTGATTAATCGGATGATGAGGTAGTAGATGCGGAGTCACCTAGTGCAG,5680 fluorescence intensity (a.u.)
10,TTAGAACTTAATTGCATTTCAGTGAATCCGTGAATGATAACGGAGTCACCTAGTGCAG,8550 fluorescence intensity (a.u.)
11,AAAGTTAACTTGATCAAACTTGCTTAACATAAGATGTGATCGGAGTCACCTAGTGCAG,4350 fluorescence intensity (a.u.)
12,ATGATAGATCAATTTGTTAAAATATTATGCAAATAATGTGCGGAGTCACCTAGTGCAG,22800 fluorescence intensity (a.u.)
13,ATAATAATAGATTCCGTTTCGACAGTAACATTTCCGATATCGGAGTCACCTAGTGCAG,3560 fluorescence intensity (a.u.)
14,AGTGATTTCACCTATCCTGTCAACTATCAAATGCGATTGCCGGAGTCACCTAGTGCAG,6690 fluorescence intensity (a.u.)
15,CTCCCTTGATATCTAGCTCATGATTGAATCGTCTTCCTCACGGAGTCACCTAGTGCAG,12200 fluorescence intensity (a.u.)
16,AATCATGTAATTGAAAATTTGGTAAAATACTCCGTAATGACGGAGTCACCTAGTGCAG,24200 fluorescence intensity (a.u.)
17,ATGTTGATTAGCAAATGCACTGCCATGTATGGAACCGACCCGGAGTCACCTAGTGCAG,41200 fluorescence intensity (a.u.)
18,GTGGACGAGATTGTCACTCACCTGATTTTGAAGTTAGTTACGGAGTCACCTAGTGCAG,11000 fluorescence intensity (a.u.)
19,AACACAGTTTATTCTTGTTAATTGATTAGCTCAATGTGTCCGGAGTCACCTAGTGCAG,39600 fluorescence intensity (a.u.)
20,GAGACATCAGCAAATTAAACAGCAACAGAGACATAACCATCGGAGTCACCTAGTGCAG,3160 fluorescence intensity (a.u.)
21,ACTTGCCCTTAATTAACCTCCGAATATGCAGCTTCAGCTTCGGAGTCACCTAGTGCAG,5640 fluorescence intensity (a.u.)

row,Sequence,binding signal
1,TTTAAACTGGTGAGACGTGAGAGCCTGGCTGCGTGGGGCTCGGAGTCACCTAGTGCAG,4530 fluorescence intensity (a.u.)
2,ATGTTGGTTAATTAGTTTAATTTTGGGCAACCAACATTAGCGGAGTCACCTAGTGCAG,25600 fluorescence intensity (a.u.)
3,TAGTTAATACTCAATTAATCATGAGCTAATGGCTCACCTCCGGAGTCACCTAGTGCAG,14200 fluorescence intensity (a.u.)
4,GTTTAATTAGCTAGCACCTGTCGCCATTGCCATGCCTCCCCGGAGTCACCTAGTGCAG,37100 fluorescence intensity (a.u.)
5,ATAACTAATAAATGATTGAATTAGATGAATAGGTAGTTTCCGGAGTCACCTAGTGCAG,31000 fluorescence intensity (a.u.)
6,AGAATGGTGATTAACTATTGGTGTTAATTAATTTGCTGCACGGAGTCACCTAGTGCAG,31000 fluorescence intensity (a.u.)
7,TGATTGATGGTTTTAAATATTATATTCCTTACTATTAAATCGGAGTCACCTAGTGCAG,5770 fluorescence intensity (a.u.)
8,CCGACTAATAATTTTGTTTGTGGCAATCAAGCTGCTATCTCGGAGTCACCTAGTGCAG,12700 fluorescence intensity (a.u.)
9,CAATAATTTCTTAAACAGCCCACAATTAATTTATCAAGCACGGAGTCACCTAGTGCAG,31200 fluorescence intensity (a.u.)
10,CACATTAATCAGCGCATCAGTTCCAGTCGTCGCCTAAATTCGGAGTCACCTAGTGCAG,4530 fluorescence intensity (a.u.)
11,TATATTTGATAGGTATAAAGGTGCAGTATCTTACATATGGCGGAGTCACCTAGTGCAG,7520 fluorescence intensity (a.u.)
12,CCGGGTGATTGGCATGAATCTGAATGGCTGAATCCTGATGCGGAGTCACCTAGTGCAG,53400 fluorescence intensity (a.u.)
13,AACCATGTTTGACTCAACATAATTAGTGCGACAAACCGCACGGAGTCACCTAGTGCAG,4590 fluorescence intensity (a.u.)
14,AACCTGATTTGCATGAACCAAATTTACAGAGTAGTAGTCACGGAGTCACCTAGTGCAG,29000 fluorescence intensity (a.u.)
15,AAAACCATCATCAATCAGCCGATCCTGATGTTGTCCCTGCCGGAGTCACCTAGTGCAG,25100 fluorescence intensity (a.u.)
16,AGTTGATTGGTAAAGTGACATGCTTGAACACTGTTGGAGCCGGAGTCACCTAGTGCAG,54000 fluorescence intensity (a.u.)
17,GCTCTCTCTATTCTGTTTGCAATCCTCTTCACCCTAATTTCGGAGTCACCTAGTGCAG,4300 fluorescence intensity (a.u.)
18,CTGGGTGATTAAAATCTCTCTCCGTCTCATTCATCACTAACGGAGTCACCTAGTGCAG,12300 fluorescence intensity (a.u.)
19,GCAGATTTTACTTGATAGCATTATCTAAGATAGCCAATTGCGGAGTCACCTAGTGCAG,7460 fluorescence intensity (a.u.)
20,AAAGAAAATTATATCTTAATTACCGTCATTATATATCTACCGGAGTCACCTAGTGCAG,15200 fluorescence intensity (a.u.)
21,TGACAAGTGATTGCGGTGAAGCTCAATAGTATTCAGTGATCGGAGTCACCTAGTGCAG,15400 fluorescence intensity (a.u.)
